According to article PMC4336329 (PLoS ONE, 2015):
Hit rate of the full screen: of about 310,000 compounds, about 14,000 (4.5%) showed an effect of 50% or more. The effect is printed as a negative number. Some of the results follow.

molecular target: human ether-à-go-go-related gene (hERG) potassium channel (human, UniProt Q12809); assay: primary screen, population patch clamp on CHO cells stably expressing hERG
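Note: peak tail current of the secondary pulse compared with the same well before compound.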

Chain of human ether-à-go-go-related gene (hERG) potassium channel (Q12809 whole entry, looked up): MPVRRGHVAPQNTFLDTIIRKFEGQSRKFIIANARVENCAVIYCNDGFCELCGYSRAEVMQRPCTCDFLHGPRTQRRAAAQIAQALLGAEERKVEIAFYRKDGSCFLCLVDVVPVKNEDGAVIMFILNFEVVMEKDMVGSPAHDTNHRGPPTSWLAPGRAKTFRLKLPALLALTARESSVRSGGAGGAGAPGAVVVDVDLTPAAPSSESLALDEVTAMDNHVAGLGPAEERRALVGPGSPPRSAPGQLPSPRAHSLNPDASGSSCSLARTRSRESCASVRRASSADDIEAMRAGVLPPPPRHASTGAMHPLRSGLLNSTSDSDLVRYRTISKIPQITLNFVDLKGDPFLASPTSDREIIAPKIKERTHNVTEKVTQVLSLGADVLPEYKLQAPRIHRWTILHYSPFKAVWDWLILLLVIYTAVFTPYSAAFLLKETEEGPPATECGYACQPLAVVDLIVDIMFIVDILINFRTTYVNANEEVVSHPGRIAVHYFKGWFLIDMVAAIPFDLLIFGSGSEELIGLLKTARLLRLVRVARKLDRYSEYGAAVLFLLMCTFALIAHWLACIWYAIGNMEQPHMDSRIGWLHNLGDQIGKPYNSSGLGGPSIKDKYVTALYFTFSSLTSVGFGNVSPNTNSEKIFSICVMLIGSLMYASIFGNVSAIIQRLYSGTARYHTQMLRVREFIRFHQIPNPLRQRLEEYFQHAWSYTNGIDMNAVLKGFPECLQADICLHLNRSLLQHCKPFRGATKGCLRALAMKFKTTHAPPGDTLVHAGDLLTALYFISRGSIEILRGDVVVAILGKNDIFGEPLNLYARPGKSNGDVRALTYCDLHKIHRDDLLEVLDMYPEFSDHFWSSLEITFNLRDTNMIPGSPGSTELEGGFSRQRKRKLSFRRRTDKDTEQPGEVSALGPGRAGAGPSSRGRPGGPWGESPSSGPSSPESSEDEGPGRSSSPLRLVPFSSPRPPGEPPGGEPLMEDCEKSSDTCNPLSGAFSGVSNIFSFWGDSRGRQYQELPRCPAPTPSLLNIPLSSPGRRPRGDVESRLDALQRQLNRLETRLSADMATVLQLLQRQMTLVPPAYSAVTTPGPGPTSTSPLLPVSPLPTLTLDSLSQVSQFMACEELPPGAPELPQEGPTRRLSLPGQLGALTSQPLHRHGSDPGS

Row | Structure (SMILES) | hERG current change (%, negative = inhibition) at 10uM [%]
1 | CCN(CC)C(=O)Cn1cc(C(=O)C(=O)N2CC=C(c3ccccc3)CC2)c2ccccc21 | -3.24
2 | C/C(=N\NC(=O)c1cccc(S(=O)(=O)N2CCOCC2)c1)c1ccc(C)cc1 | -3.88
3 | CC1CCCCN1CCCNc1ccc(C(CC(N)=O)NC(=O)Cc2ccc(Cl)cc2)cc1[N+](=O)[O-] (stereo not shown) | -10.5
4 | O=C(Nc1ccc(NS(=O)(=O)c2ccc([N+](=O)[O-])cc2)cc1)c1ccco1 | -18.2
5 | Cc1ccc(N2CC(C(=O)Nc3cc(C(F)(F)F)ccc3N3CCCC3)CC2=O)cc1 (stereo not shown) | -7.04
6 | COc1ccc(Cl)cc1S(=O)(=O)N1CCC(C(=O)NCc2ccccn2)CC1 | -7.12
7 | Cc1ccc(NC(=O)CN(C)C(=O)c2ccc(COc3ccccc3)cc2)cc1 | -5.46
8 | COc1ccc2c(c1)[nH]c1c(=O)n(/N=C/C3C(C)C=C(C)CC3C)c(=O)[nH]c12 (stereo not shown) | 15.8
9 | CCOc1ccc(S(=O)(=O)N2CCN(c3ccc(C)cc3C)CC2)cc1 | -4.57
10 | Cc1nn(CC(=O)NCCc2ccc(Cl)cc2Cl)c(C)c1[N+](=O)[O-] | -21.5
11 | O=C(C1CCC1)N1CCc2cc(S(=O)(=O)NCc3cccnc3)ccc21 | -7.87
12 | Cc1ccc(NC(=O)NNC(=O)Cn2nc(-c3ccccc3)c(-c3ccccc3)c(C#N)c2=O)cc1 | 7.22
13 | O=C1NN(c2ccc(Br)cc2)C(=O)/C1=C\c1ccc(O)cc1O | 30.2
14 | CC(=O)N1C(O)CC(C)N1c1ccccc1 (stereo not shown) | 14.3
15 | CCO[C@@H]1OC(C(=O)NC2CC2)=C[C@H](C2CCCCC2)[C@H]1CCCO | -22
16 | CCOc1ccc(/C=C/C(=O)C(C(N)=O)=C2SCCS2)cc1 | 11.3
17 | O=[N+]([O-])c1cc(S(=O)(=O)N2CCCC2)ccc1NN=C1CCCC1 | -11.1
18 | O=C(Nc1ccccc1SCC1CSc2nc3ccccc3c(=O)n21)c1ccccc1 (stereo not shown) | -67.7
19 | COc1ccc(-c2cc(-c3cc(F)ccc3O)[nH]n2)cc1OC | 10.3
20 | CN(C(=O)c1ccc(NC(=O)Cc2cccc(NC(=O)C3CCN(C(=O)C4CCC4)CC3)c2)cc1)C1CCCC1 | 11
21 | Cc1c(N/C(=N/S(=O)(=O)c2ccc(F)cc2)c2ccccc2)c(=O)n(-c2ccccc2)n1C | 0.39
22 | O=C(NC1CCCC1)c1ccc(CS(=O)(=O)c2cccc(C(F)(F)F)c2)o1 | -24.3

Row | Structure (SMILES) | hERG current change (%, negative = inhibition) at 10uM [%]
23 | COc1ccc(C)cc1NC(=O)CSc1ccc(-c2sc(C)nc2C)nn1 | -6.48
24 | CS(=O)(=O)Cc1ccc(C(=O)NC2CCSc3ccccc32)cc1 (stereo not shown) | -16.4
25 | Clc1cc(Cl)cc(C2=NC(Cc3ccccc3)CO2)c1 (stereo not shown) | 16.9
26 | O=C(NCCOCc1ccccc1)C(c1ccccc1)c1ccccc1 | -9.69
27 | COc1ccc(-c2csc(NC(=O)CCn3cnc4ccccc4c3=O)n2)cc1OC | 0.239
28 | Cc1ccc(C)c(S(=O)(=O)N/N=C/c2ccc(N3CCOCC3)cc2)c1 | 6.74
29 | COc1cc(OC)cc(C(=O)NNC(=O)CN2C(=O)NC(C)(c3ccccc3)C2=O)c1 (stereo not shown) | 22.9
30 | Cc1ccn(CC(=O)O)c(=O)c1 | -4.04
31 | Cc1c(NS(=O)(=O)c2ccc3c(c2)n(C)c(=O)n3C)c(=O)n(-c2ccccc2)n1C | 10.1
32 | COc1ccc(C(CCNCc2ccccc2)c2ccc(F)cc2)cc1 (stereo not shown) | -66.7
33 | Cc1ccc(Nc2nc(C)cc(C)n2)c(Br)c1 | -14.5
34 | CC(C(=O)OCC(=O)Nc1ccc2c(c1)OCO2)N1C(=O)c2ccccc2C1=O (stereo not shown) | -12.4
35 | O=[N+]([O-])c1ccc(Cl)c(S(=O)(=O)n2ccnc2)c1 | 5.1
36 | COc1ccc(NC(=O)C2C3C=CC(C3)C2C(=O)O)cc1 (stereo not shown) | -2.32
37 | COC(=O)COc1c(Cl)cc(Cl)c2ccc(C)nc12 | -0.397
38 | C=CCn1c(O)c(C(CC)=Nc2cc(OC)ccc2OC)c(=O)[nH]c1=O | 2.22
39 | COc1ccc(-c2cc(C(=O)Nc3ccccc3O)c3ccccc3n2)cc1 | 13.1
40 | CC(C)CNC(=O)c1cccc(NC(=O)C(C)C)c1 | 6.64
41 | O=C(NCCc1ccccc1)C(=O)NN=C1CCCC1 | 0.258
42 | COc1cc(/C=C(\C#N)C(=O)Nc2cccc(C(=O)O)c2)ccc1OCc1ccc(Cl)cc1 | 20
43 | COc1ccccc1N1CCN(C2CCCN(C(=O)c3cccc(-c4ccco4)c3)C2)CC1 (stereo not shown) | -36.1
44 | CCS(=O)(=O)N1Cc2ccccc2CC1C(=O)NCCc1ccccc1 (stereo not shown) | -15.2

Row | Structure (SMILES) | hERG current change (%, negative = inhibition) at 10uM [%]
45 | CCNc1nc(NCC)n2c(SC(C(=O)Nc3cc(C)ccc3C)c3ccccc3)nnc2n1 (stereo not shown) | -1.82
46 | O=C(c1ccc(S(=O)(=O)N2CCOCC2)cc1)N1CCN(S(=O)(=O)c2ccc(Cl)s2)CC1 | -0.782
47 | COc1ccc(NC(=O)C(C/C=C(/C)Cl)C(C)=O)cc1 (stereo not shown) | -6.29
48 | CC(C)C(NC(=O)c1ccccc1NC(=O)c1ccco1)C(=O)NNC(=O)c1ccncc1 (stereo not shown) | 5.98
49 | CCOc1ccc(/C=N/NC(=O)c2ccccc2O)cc1CN1CC2CC(C1)c1cccc(=O)n1C2 (stereo not shown) | -16.7
50 | C=C(C)c1cccc(C(C)(C)NC(=O)NCc2ccncc2)c1 | -9.41
51 | Cc1c(S(=O)(=O)Nc2ccc3c(c2)OCCO3)c(=O)n(C)c(=O)n1C | -10.7
52 | Cc1ccc(Cl)c(OCCN2CCc3ccccc3C2)c1.Cl | -9.17
53 | Cc1cc(C)n(CC(O)Cn2c(C)c(C)c3ccccc32)n1.O=C(O)C(=O)O (stereo not shown) | 7.14
54 | Cc1ccc(C)c(NC(=O)C2CC=CCC2C(=O)O)c1 (stereo not shown) | 20
55 | COc1ccc(CCNC(=O)/C=C/c2ccc3ccccc3n2)cc1OC | 8.48
56 | Cc1ccc2cc(C)c(SCC(=O)Nc3ccc(S(=O)(=O)N4CCCC4)cc3)nc2c1 | 11.7
57 | COc1ccc(C)c2sc(N(CCCN(C)C)C(=O)CS(=O)(=O)c3ccc(F)cc3)nc12.Cl | -60.3
58 | CC(C)N1C(=O)CSC1c1ccc(Br)cc1 (stereo not shown) | 5.07
59 | Cc1cccc(C2=NC(C(F)(F)F)(C(F)(F)F)c3c(n(-c4ccc(F)cc4)c(=O)[nH]c3=O)N2)c1 | -2.79
60 | CCOC(=O)CN(C(=O)CSc1nnc(CNc2ccc(C)cc2C)n1CC)c1ccccc1 | -24.7
61 | COC(=O)c1ccc(C(=O)Nc2ccc(N)cc2N)cc1 | 8.54
62 | Cc1ccc(S(=O)(=O)N(CC(=O)N2CCC(C(N)=O)CC2)c2cccc(C(F)(F)F)c2)cc1 | -3.78
63 | CN(C)/C(=N\S(=O)(=O)c1ccccc1)c1ccccc1 | 10.6
64 | COCCCn1c(C2CCCCC2)nc2oc3cc(OC)ccc3c(=O)c2c1=O | -3.91
65 | CC(C)(C)SCCNC(=O)Nc1ccccc1 | 5.18
66 | CC(C)c1ccc(NC(=O)C(=O)C2C(=O)Nc3ccccc32)cc1 (stereo not shown) | -1.62

Row | Structure (SMILES) | hERG current change (%, negative = inhibition) at 10uM [%]
67 | O=C(O)c1ccc(-n2cncn2)c([N+](=O)[O-])c1 | 11.6
68 | CS(=O)(=O)N(CC(=O)NCc1ccco1)c1ccc(Cl)cc1Cl | 8.43
69 | Cc1nc2ccccc2c(=O)n1/N=C/c1cccnc1 | 4.39
70 | COc1cc(OC)cc(N(C(=O)c2ccco2)C(C(=O)NC2CCCC2)c2ccc(N(C)C)cc2)c1 (stereo not shown) | -31.5
71 | Cc1ccc(N(CC(=O)NC(C)(C)C)C(=O)CCC(=O)Nc2nccs2)c(C)c1 | 10.9
72 | COc1ccc([C@@H]2[C@@H](C(=O)C(C)(C)C)N3N=Cc4ccccc4[C@@H]3C23C(=O)OC(C)(C)OC3=O)cc1OC | -9.52
73 | CC(C)NC(=S)N/N=C1\CCCCC1C1CCCCC1 (stereo not shown) | 23.3
74 | CCC1(CC)C(=O)N(C)C(=O)NC1=NC | 10.6
75 | Cc1cc(C)c2c(CN3CCN(Cc4ccc5c(c4)OCO5)CC3)cc(=O)oc2c1 | -75.4
76 | CNC(=S)N/N=C(\C)c1ccccc1 | -18.4
77 | O=C(NN=C1CCCCCC1)c1cccnc1 | 17.3
78 | O=C(Nc1ccc(Br)cc1)C1OCCc2ccccc21 (stereo not shown) | -17
79 | S=C(Nc1ccc(Oc2ccccc2)cc1)NC1CCCCC1 | 8.35
80 | O=c1ccc(-c2ccccc2)nn1Cc1ccc(F)cc1 | -12
81 | COc1ccc(C2=NN(CC(=O)Nc3cc(C)ccc3C)C(=O)CC2)cc1 | -10.4
82 | COc1cccc2cc(C(=O)NCCC3=CCCCC3)c(=O)oc12 | 2.79
83 | CC(OC(=O)c1cc2sccc2n1C)C(=O)NC(C)(C)C (stereo not shown) | 17.3
84 | CC1(C)Oc2ccc3ccc(=O)oc3c2[C@H](O)[C@H]1O | 21.7
85 | C=CCn1c(C)cc(C(=O)COC(=O)c2cncc(Br)c2)c1C | -55.9
